Measured values from publication PMC4336329 (PLoS ONE, 2015).
About 2,200 (0.71%) of roughly 310,000 compounds showed an effect of 50% or more. Effects have a minus sign here. The list shows a part of the results.

Each compound was assayed against human ether-à-go-go-related gene (hERG) potassium channel (human, UniProt Q12809) (assay: primary screen, population patch clamp on CHO cells stably expressing hERG).
Chain of human ether-à-go-go-related gene (hERG) potassium channel (Q12809 whole entry, looked up): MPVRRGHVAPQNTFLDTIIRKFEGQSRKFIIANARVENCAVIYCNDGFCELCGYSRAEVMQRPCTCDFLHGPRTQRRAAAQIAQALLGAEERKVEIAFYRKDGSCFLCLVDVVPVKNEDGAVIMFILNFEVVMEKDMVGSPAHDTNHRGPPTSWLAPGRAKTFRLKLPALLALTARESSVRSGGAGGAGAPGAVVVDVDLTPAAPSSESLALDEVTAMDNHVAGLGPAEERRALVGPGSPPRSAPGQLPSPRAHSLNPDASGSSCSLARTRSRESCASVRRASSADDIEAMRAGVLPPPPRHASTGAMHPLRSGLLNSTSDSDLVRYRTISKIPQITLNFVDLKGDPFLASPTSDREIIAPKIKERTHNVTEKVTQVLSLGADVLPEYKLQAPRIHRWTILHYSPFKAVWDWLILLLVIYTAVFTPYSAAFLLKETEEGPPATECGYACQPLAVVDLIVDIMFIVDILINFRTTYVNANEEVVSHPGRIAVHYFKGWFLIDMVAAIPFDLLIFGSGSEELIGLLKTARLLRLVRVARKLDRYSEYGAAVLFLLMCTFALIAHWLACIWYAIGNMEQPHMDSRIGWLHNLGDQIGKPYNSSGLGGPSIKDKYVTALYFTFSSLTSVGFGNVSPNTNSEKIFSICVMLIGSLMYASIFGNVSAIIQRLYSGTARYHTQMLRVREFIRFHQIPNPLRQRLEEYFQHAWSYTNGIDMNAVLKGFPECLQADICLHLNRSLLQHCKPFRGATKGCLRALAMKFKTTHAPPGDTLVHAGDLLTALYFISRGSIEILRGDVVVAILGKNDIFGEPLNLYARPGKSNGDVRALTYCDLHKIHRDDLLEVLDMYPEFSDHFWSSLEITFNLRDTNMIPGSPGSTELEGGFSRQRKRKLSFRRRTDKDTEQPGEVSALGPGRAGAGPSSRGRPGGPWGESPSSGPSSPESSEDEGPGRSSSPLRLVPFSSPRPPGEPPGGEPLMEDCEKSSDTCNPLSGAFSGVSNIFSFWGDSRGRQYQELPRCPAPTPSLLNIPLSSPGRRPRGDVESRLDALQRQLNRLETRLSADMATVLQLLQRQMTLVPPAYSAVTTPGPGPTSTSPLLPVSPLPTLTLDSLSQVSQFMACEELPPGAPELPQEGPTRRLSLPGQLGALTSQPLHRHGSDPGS

SMILES	hERG current change (%, negative = inhibition) at 1uM [%]
O=C(NCC1CCCO1)c1nn2c(C(F)(F)F)cc(-c3ccco3)nc2c1Cl (stereo not shown)	6.3
CO/N=C/NC(=O)c1c(OC)ccnc1Oc1ccccc1	9.86
Cl.O=C(O)C(c1ccccc1)N1CCCC1 (stereo not shown)	8.24
CCc1cc2c(COC(=O)CCNS(=O)(=O)c3cccc(C(F)(F)F)c3)cc(=O)oc2cc1O	6.34
O=C(Nc1ccccc1N1CCN(c2ccccc2)CC1)c1cccc(F)c1	6.69
CCN(CCCNC(=O)CNC(=O)Cn1cnc2ccccc2c1=O)c1ccccc1	2.69
CCOC(=O)N1CCN(C(=O)c2cc(OCC)c(OCC)c(OCC)c2)CC1	8.58
COC(CNc1nc(SC)nc2sc3c(c12)CCN(C)C3)OC	-13.6
O=C(Nc1ccc(S(=O)(=O)Nc2nccs2)cc1)c1ccc(S(=O)(=O)N2CCOCC2)cc1	20.5
Cn1c(=O)c([N+](=O)[O-])c(N2CCSCC2)c2ccccc21	22.1
COCCNC(=O)C1CCC(=O)N1S(=O)(=O)c1ccc(C)cc1 (stereo not shown)	16.9
Cn1c(-c2ccsc2)c(-c2cccs2)c2cc(-c3ccc4cc[nH]c4c3)ccc21	18.8
COc1ccccc1OCc1nc2ccccc2[nH]1	3.99
CC(C)NC(=O)COC(=O)c1cc(Br)ccc1Cl	11.4
COCc1cc(C)nc(N/N=C/c2ccc(-c3cc(C(=O)O)ccc3Cl)o2)c1C#N	16.2
CCc1nnc(NS(=O)(=O)c2ccc(N/C=C/C(=O)c3ccc(C)cc3)cc2)s1	13.7
O=S(=O)(c1ccc(C2CCCCC2)cc1)N1CCN(c2ncccn2)CC1	5.39
CCc1ccc(OCCCC(=O)O)c(Br)c1	8.96
C1CCc2nnc(-c3nnc4n3CCCCC4)n2CC1	0.993
COC(=O)c1ccc2c(c1)C(C)(C)C(/C=C/c1ccc(OC)c(OC)c1OC)=[N+]2C.[I-]	7.11
CCC1(c2ccccc2)NC(=O)N(CC(=O)NCCN2C(=O)S/C(=C\c3cccnc3)C2=O)C1=O (stereo not shown)	15.9
O=C(c1ccccc1Oc1ccccc1)N1CCN(c2ccccc2F)CC1	5.99
COc1ccc(-n2cnnc2SCC(=O)c2cc(C)n(Cc3cccs3)c2C)cc1	4.51

SMILES	hERG current change (%, negative = inhibition) at 1uM [%]
O=S(=O)(c1ccccc1)N1CCC(O)(CSc2ccccc2)CC1	8.97
O=C(Cn1nnc(N2CCCCC2)n1)c1ccc(Cl)c(Cl)c1	9.25
Nc1nc(N)c2[nH]cnc2n1	-6.13
Clc1cccc(Oc2cnc3ccccc3n2)c1	8.16
Cc1nccn1CCCN1C(=O)CNC1=S	12.2
CCCCOc1ccc(C(=O)NCC(=O)NCC(c2ccc(OC)cc2)N2CCOCC2)cc1 (stereo not shown)	5.17
CC(NC(=O)Cc1cccs1)C(c1cccs1)N1CCN(c2ccccc2F)CC1 (stereo not shown)	-3.48
Cc1ccc(C(=O)N(c2ccccn2)C(C)c2ccco2)cc1C (stereo not shown)	-3.44
O=C(O)COc1cnc2ccccc2n1	11.8
O=S(=O)(c1ccc(OCC(O)CN2CCCCC2)cc1)N1CCOCC1 (stereo not shown)	23.3
O=S(=O)(O)c1nc2ccccc2n1CCOc1ccccc1	11.5
Cc1ccc(NC(=O)Cn2c(=O)cnc3ccccc32)cc1S(=O)(=O)N1CCCCC1	4.36
COCCSc1nnc(NC(=O)C(C)(C)C)s1	8.7
CCCc1cc2c(cc1NC(=O)c1ccco1)OCO2	9.18
Cc1ccc(C(=O)c2cn[nH]c2-c2ccccc2O)cc1	18.1
Cc1ccc(S(=O)(=O)CC(=O)N2CC(C)OC(C)C2)cc1 (stereo not shown)	0.13
S=C(Nc1ccccc1Cl)N1CCCCC1	19.3
Cc1cccc(OCC(=O)NC(C)C(=O)N/N=C/c2c(OCc3ccccc3)ccc3ccccc23)c1 (stereo not shown)	1.68
COC(=O)c1ccc(-n2nnnc2SCC(=O)Nc2ccccc2OC)cc1	10.6
COc1cc(CNCc2cccs2)ccc1OCc1ccccc1.Cl	-5.06
Cc1ccc2occ(CN3CCN(c4ccccc4)CC3)c(=O)c2c1	-6.76
CCc1ccc(-n2cc(-c3ccc(F)cc3)[n+]3c2SCCC3)cc1.[Br-]	-31.3
CC(C)CNS(=O)(=O)c1cc2c3c(c1)CC(=O)N3CCC2	13.5

SMILES	hERG current change (%, negative = inhibition) at 1uM [%]
O=c1cc(CO)occ1OCc1cccc(F)c1	5.88
O=c1c2cn[nH]c2[nH]c(=S)n1-c1ccccc1F	22.4
Cc1ccc(S(=O)(=O)N2CCN(C(=O)COC(=O)COc3ccccc3)CC2)cc1	29.9
CSc1ccccc1OCc1cc(C(=O)NC(C)Cn2cncn2)no1 (stereo not shown)	7.43
CSCC[C@H](NC(=O)OC(C)(C)C)c1nnc(SCc2ccccc2)o1	9.97
c1ccc2c(CN3CCSCC3)cccc2c1	9.87
CC(C)OC(=O)c1ccc(NC(=O)C2C3CC4OC(=O)C2C4C3)cc1 (stereo not shown)	11.8
CCCCn1c(SCC(=O)N2CCCC2)nnc1-c1ccccc1	16.1
Cc1cc(C)c2c(c1)cc(C)c1nnc(SCC(=O)Nc3cc(C)on3)n12	5.07
COc1ccc(C(=O)NCCS(=O)(=O)N2CCCC2)cc1	4.93
CC(NC(=O)CCOc1ccccc1)c1ccccc1 (stereo not shown)	10.9
CC1CCN(Cc2nc(Cl)c3c4c(sc3n2)CCC4)CC1	2.99
CCc1ccccc1NC(=O)CN(c1cccc(OC)c1)S(C)(=O)=O	15.5
Cc1cccc(N2C(=O)c3cccc4cccc(c34)C2=O)c1	19.6
CC(C)N1C(=S)SC2CS(=O)(=O)C=C21 (stereo not shown)	12.3
CCCCC(CCC(=O)Nc1cc([N+](=O)[O-])ccc1O)C(=O)O (stereo not shown)	17.7
CC(C)COc1cccc(-c2cc(C(=O)Nc3ccon3)c3ccccc3n2)c1	21.1
O=c1cc(O)n(-c2ccc(F)cc2)c(=S)[nH]1	13.9
CC(=O)N(CCC1(c2ccc(C)cc2)CCOC(C(C)C)C1)Cc1ccco1 (stereo not shown)	13.1
S=C(NCc1cccnc1)Nc1cccc2ccccc12	0.343
Cc1onc(C(=O)N2CCN(C(c3ccccc3)c3ccccc3)CC2)c1[N+](=O)[O-]	2.68
COc1ccc(OCC(=O)Nc2ccc(OC)c(S(=O)(=O)N3CCCCC3)c2)cc1	-2.82
O=C(Cc1ccccc1)N/N=C/c1ccc([N+](=O)[O-])s1	12.5

SMILES	hERG current change (%, negative = inhibition) at 1uM [%]
S=C(NCCc1ccccn1)Nc1cccc(Cl)c1	10.1
Cc1cccc(CS(=O)(=O)Cc2ccc(C(=O)NC3CCCC3)o2)c1	10.6
CCOC(=O)CSc1nc2sc3c(c2c(=O)n1-c1ccc(OCC)cc1)CCN(C)C3	-1.09
Cc1cccc(C(=O)NCC(c2ccco2)N(C)C)c1 (stereo not shown)	8.88
NC(=O)c1cc(S(=O)(=O)NC2CCCCC2)co1	1.43
Cc1cccc(NC(=O)CCNS(=O)(=O)c2ccc(Cl)cc2)c1	12.6
CCOc1cc(C(=O)Nc2ccc(N3CCN(C(C)=O)CC3)cc2)cc(OCC)c1OCC	11.1
COc1ccc2c(C)c(C(=O)N3CCN(Cc4ccccc4)CC3)oc2c1.Cl	1.27
O=C(CN1C(=O)NC2(CCCC2)C1=O)Nc1ccc(F)c(F)c1F	2.19
COc1cc2c(cc1OC)C(c1ccccc1)N(C(=O)c1cccc(S(C)(=O)=O)c1)CC2 (stereo not shown)	4.8
Cc1ccc(N2C(=O)CC(Sc3nccc(C)n3)C2=O)cc1 (stereo not shown)	11.4
CC(C)(C)NC(=O)/C(=C\c1cccnc1)NC(=O)c1ccco1	7.61
Cc1nn(-c2ccccc2)nc1C(=O)Oc1cc(C(F)(F)F)nn1-c1ccccc1	8.96
Cc1ccc(=O)n(C(C(=O)NCc2ccco2)C(=O)c2ccc(F)cc2)c1 (stereo not shown)	6.1
COc1ccc2c(c1)[nH]c1c(=O)n(Cc3ccco3)cnc12	13.9
O=C(CCc1ccccc1)NCCSc1ccccc1	5.41
CCC(C)NC(=O)CSc1nnc(-c2ccc(Cl)cc2)n1N (stereo not shown)	3.79
COc1ccc(C)cc1NC(=O)CN(C)S(=O)(=O)c1ccc2c(c1)c(=O)n(C)c(=O)n2C	12.8
O=C(Nc1ccc(Oc2ccccc2)nc1)C1CCN(Cc2ccco2)CC1	-4.52
CC(C)C(NC(=O)/C(=C\c1ccco1)NC(=O)c1ccco1)C(=O)O (stereo not shown)	14.4
C[C@@H](NC(=O)c1nc[nH]c1C(=O)N[C@@H](Cc1ccccc1)C(=O)OCc1ccccc1)c1ccccc1	5.55
COc1ccccc1NC(=O)CSc1nnc(Cn2cnc3ccccc32)n1C	1.02
